# Source: ChEMBL document CHEMBL4888484, “Replenishing the malaria drug discovery pipeline: Screening and hit evaluation of the MMV Hit Generation Library 1 (HGL1) against asexual blood stage Plasmodium falciparum ,using a nano luciferase reporter read-out” (2022)
# The whole screen tested about 150,000 compounds, of which about 540 (0.36%) showed an effect of 50% or more. The list shows a part of the results.
# System: Plasmodium falciparum
# Assay: Primary screen in NF54 nanoGlo assay, in single point, at 2uM, 72h; a lower Z score goes with more inhibition
# Type: functional, Erythrocyte
# Details: timepoint 72 hour
SMILES,% Inhibition [%],Z score
CO[C@@](C)(CNC(=O)N1CCNC1=O)c1ccccc1F,10,-1.21
Cc1c(CN2C[C@H](O)[C@@H](N3CCN(C)CC3)C2)[nH]c2ccc(Cl)cc12,-1,0.14
COc1ccsc1S(=O)(=O)N[C@@H](C(C)C)[C@H](O)C(F)(F)F,0,0.03
Cc1cc(C(=O)NC2CCCC(C)C2C)no1 (stereo unspecified),-18,2.03
CC(C)N1C(=O)CN(C(=O)[C@H]2CCO[C@@H]2c2cnn(C)c2)CC1(C)C,-5,0.91
CC(C)n1cccc1C(=O)OC1CCCC(S(C)(=O)=O)C1 (stereo unspecified),-18,2.44
C[C@H](NS(=O)(=O)Cc1cccc(F)c1)C(N)=O,-5,0.72
CCN(C)C(=O)c1coc(CN2C(=O)COc3ccc(C(=O)COc4cc(C)cc(C)c4)cc32)n1,-18,2.76
CN(C(=O)c1n[nH]c(=O)c2ccccc12)C1CCCC1,-5,0.74
Cn1cccc1C(=O)N1C[C@@H]2C[C@H]1C[C@@H]2NC(=O)c1ccccc1,-11,1.66
O=C1CO[C@H]2CN(Cc3c[nH]c4ccccc34)C[C@H]2N1Cc1ccccn1,19,-3.02
O=C(O)[C@@H]1Cc2ccccc2C(=O)N1CCc1ccccc1,10,-1.54
O[C@H]1CN(CCCCOc2ccccc2)C[C@@H]1F,2,-0.4
CS(=O)(=O)N1CC(CONC(=O)CCCc2ccccc2)C1,-11,1.38
O=C(Cc1ccc(F)c(F)c1)N1CCC(C2(c3ccccn3)NC(=O)N(CC3CCCO3)C2=O)CC1 (stereo unspecified),16,-2.03
CCC[C@]1(COC)CCCN1Cc1csc(-c2c(C)c(C)nn(C)c2=O)n1,-15,2.3
COCc1noc(CCNC(=O)[C@H](O)c2ccccc2Cl)n1,-11,1.39
CCC(C)N1C(=O)C(Cc2ccccc2)NC12CCN(S(=O)(=O)c1ccc(Cl)c(Cl)c1)CC2 (stereo unspecified),-19,1.66
CCNc1cc(C)ccc1NC(=O)C1CN(C)CC1C(F)(F)F (stereo unspecified),-9,1.03
CCN1CCO[C@H](C(=O)N2CCCc3cc(OC)ccc3C2)C1,-15,1.92
CCOC(=O)C(=O)Nc1ccc(C(C)(C)C)cc1,-13,2.28
Cc1nn(C)c(C)c1CC(=O)N1CCCc2ccccc21,-11,1.56
Fc1cc(-c2ccc(-c3ccon3)s2)c2ncccc2c1,-12,1.51
CCN(CC)S(=O)(=O)c1ccc2c(c1)nnn2CCNC(=O)Nc1cccc(F)c1,26,-2.96
O=C(CN1C(c2ccc(Cl)cc2)=C[C@@H](c2ccccc2)n2nnnc21)Nc1ccccc1,-11,1.91
CCC(=O)c1cccc(C[C@H]2CC(=O)N(CCOC)C2)c1,3,-0.53
CN(C(=O)c1ccc2c(c1)N(S(C)(=O)=O)CC2)c1cccc(C(F)(F)F)c1,-13,2.14

SMILES,% Inhibition [%],Z score
COc1ccc(Cc2nc(-c3ccc(N4CCCC4)cc3)no2)cc1,-6,0.84
CS(=O)(=O)[C@H]1CCCCN(c2nnc(C(F)F)o2)C1,19,-2.37
CCCCn1nc(-c2ccncc2)nc1CN(C)C,-2,0.3
Cc1ccc(CNC(=O)N2C[C@H](O)[C@@H](F)C2)cc1,-6,0.76
CCC1[C@@H](C)C(Nc2ccccc2)c2ccccc2N1C(=O)c1ccc(Br)cc1 (stereo partly specified),-14,1.6
O=C(Cn1nnc2ccccc2c1=O)N1CCc2nc[nH]c2C1,-4,0.62
NS(=O)(=O)[C@H]1CCc2ccccc2C1,-3,0.36
N#CCCN(CC1CCC1)S(=O)(=O)CCc1ccccn1,-7,0.85
CCCNC(=O)[C@@H]1CCCC[C@@H]1c1nc(C)nn1-c1ccc(F)cc1F,-8,1.48
O=C([C@@H](c1ccccc1)n1nnc(-c2ccccc2Br)n1)N1CCCC1,34,-3.97
Cc1nc(-c2cc(S(=O)(=O)Nc3cccc(F)c3)cn2C)sc1C(=O)N1CCCCC1,-20,2.37
CCc1nc(-c2cc(CC(C)C)[nH]c(=O)n2)n(Cc2ccccc2Cl)n1,-17,1.53
O=C(Nc1nc2c(s1)CCC2)c1ccco1,-6,0.52
CNC(=O)c1cccc(CN2CCC(CN3CCc4ccccc43)CC2)c1,-7,1
O=C(NC1(c2cccc(Cl)c2)CCCC1)c1cnccn1,-1,0.14
CC(C)(CNc1ncccc1S(C)(=O)=O)c1ccncc1,-3,0.5
Cc1c[nH]nc1NC(=O)[C@H](C)NC(=O)CC1CCCCC1,-4,0.62
CC(=O)N1C[C@@H]2CCN(C(=O)c3ccc(Cl)cc3)C[C@]2(CO)C1,2,-0.27
Cc1cccn(CC(=O)N(C2CC2)[C@@H](C)c2ccc(Cl)cc2)c1=O,-4,0.59
CN1CCC(CNC(=O)C2(O)CCc3cc(Br)ccc3C2)CC1=O (stereo unspecified),-1,0.2
Cc1c(CN(C)CC(=O)Nc2cccc(Cl)c2Cl)cnn1C,-3,0.33
COc1ccc(C(=O)N2CCC[C@H](C(=O)Nc3ccccc3O)C2)c2ccccc12,11,-1.27
CC(C)[C@H](C)N(CC(F)(F)F)C(=O)c1cc2c(cn1)OCCC2,0,-0.02
CCN(CC)CCN(C)C(=O)c1cnn(-c2nccc(-c3ccc4c(c3)OCO4)n2)c1-c1ccco1,16,-1.97
CN1CCN(C(=O)c2ccc(-c3ccccc3F)o2)CC1,-15,2.07
C[C@H](NC(=O)CNC(=O)OCc1ccccc1)c1cccs1,10,-1.36
